Source: the supplement of paper PMC8728848
The other results are listed elsewhere or left out.

Columns and labels:
Assay in all cases: glycan array binding signal (z-score within array); higher = stronger binding
Details in all cases: glycan notation: IUPAC condensed, linker removed
Fuc(a1-3)GlcNAc = molecular target: Fuc(a1-3)GlcNAc
Outline: (§1)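 The binding signal is a Z-score computed within each array. Data were drawn from 3228 arrays in the Consortium for Functional Glycomics database, restricted to those with a known protein sequence. Scores were averaged over arrays of the same protein sequence at different concentrations or buffers, and over linkers, and negative values can be taken as non-binding.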

[1] = molecular target: Fuc(a1-3)[Gal(b1-4)]Glc6S
Outline: as §1

[2] = molecular target: Fuc(a1-3)[Gal(b1-4)]GlcNAc
Outline: as §1

[3] = molecular target: Fuc(a1-3)[Gal(b1-4)]GlcNAc(b1-2)Man
Outline: as §1

[4] = molecular target: Fuc(a1-3)[Gal(b1-4)]GlcNAc(b1-2)Man(a1-3)[Fuc(a1-3)[Gal(b1-4)]GlcNAc(b1-2)Man(a1-6)]Man(b1-4)GlcNAc(b1-4)GlcNAc
Outline: as §1

[5] = molecular target: Fuc(a1-3)[Gal(b1-4)]GlcNAc(b1-2)Man(a1-3)[Fuc(a1-3)[Gal(b1-4)]GlcNAc(b1-2)Man(a1-6)]Man(b1-4)GlcNAc(b1-4)[Fuc(a1-6)]GlcNAc
Outline: as §1

[6] = molecular target: Fuc(a1-3)[Gal(b1-4)]GlcNAc(b1-3)Gal(b1-3)[Fuc(a1-4)]GlcNAc
Outline: as §1

[7] = molecular target: Fuc(a1-3)[Gal(b1-4)]GlcNAc(b1-3)Gal(b1-4)[Fuc(a1-3)]GlcNAc
Outline: as §1

[8] = molecular target: Fuc(a1-3)[Gal(b1-4)]GlcNAc(b1-3)Gal(b1-4)[Fuc(a1-3)]GlcNAc(b1-3)Gal(b1-4)[Fuc(a1-3)]GlcNAc
Outline: as §1

[9] = molecular target: Fuc(a1-3)[Gal(b1-4)]GlcNAc(b1-3)GalNAc
Outline: as §1

[10] = molecular target: Fuc(a1-3)[Gal(b1-4)]GlcNAc(b1-6)GalNAc
Outline: as §1

[11] = molecular target: Fuc(a1-3)[Gal(b1-4)]GlcNAc(b1-6)[Gal(b1-3)GlcNAc(b1-3)]Gal(b1-4)Glc
Outline: as §1

[12] = molecular target: Fuc(a1-3)[Gal(b1-4)]GlcNAc6S
Outline: as §1

[13] = molecular target: Fuc(a1-3)[Gal3S(b1-4)]Glc
Outline: as §1

[14] = molecular target: Fuc(a1-3)[Gal3S(b1-4)]GlcNAc
Outline: as §1

[15] = molecular target: Fuc(a1-3)[Gal3S(b1-4)]GlcNAc6S
Outline: as §1

[16] = molecular target: Fuc(a1-3)[GalNAc(b1-4)]GlcNAc
Outline: as §1

[17] = molecular target: Fuc(a1-3)[GalNAc(b1-4)]GlcNAc6S
Outline: as §1

Fuc(a1-4)GlcNAc = molecular target: Fuc(a1-4)GlcNAc
Outline: as §1

Fuc(b1-3)GlcNAc = molecular target: Fuc(b1-3)GlcNAc
Outline: as §1

Gal(a1-2)Gal = molecular target: Gal(a1-2)Gal
Outline: as §1

Gal(a1-3)Gal = molecular target: Gal(a1-3)Gal
Outline: as §1

Gal(a1-3)Gal(b1-3)GlcNAc = molecular target: Gal(a1-3)Gal(b1-3)GlcNAc
Outline: as §1

[18] = molecular target: Gal(a1-3)Gal(b1-3)GlcNAc(b1-2)Man
Outline: as §1

[19] = molecular target: Gal(a1-3)Gal(b1-3)GlcNAc(b1-2)Man(a1-3)[Gal(a1-3)Gal(b1-3)GlcNAc(b1-2)Man(a1-6)]Man(b1-4)GlcNAc(b1-4)GlcNAc
Outline: as §1

[20] = molecular target: Gal(a1-3)Gal(b1-3)GlcNAc(b1-3)GalNAc
Outline: as §1

[21] = molecular target: Gal(a1-3)Gal(b1-3)GlcNAc(b1-6)GalNAc
Outline: as §1

[22] = molecular target: Gal(a1-3)Gal(b1-3)[Fuc(a1-4)]GlcNAc(b1-2)Man(a1-3)[Gal(a1-3)Gal(b1-3)[Fuc(a1-4)]GlcNAc(b1-2)Man(a1-6)]Man(b1-4)GlcNAc(b1-4)GlcNAc
Outline: as §1

Gal(a1-3)Gal(b1-4)Glc = molecular target: Gal(a1-3)Gal(b1-4)Glc
Outline: as §1

Gal(a1-3)Gal(b1-4)GlcNAc = molecular target: Gal(a1-3)Gal(b1-4)GlcNAc
Outline: as §1

[23] = molecular target: Gal(a1-3)Gal(b1-4)GlcNAc(b1-2)Man
Outline: as §1

[24] = molecular target: Gal(a1-3)Gal(b1-4)GlcNAc(b1-2)Man(a1-3)[Gal(a1-3)Gal(b1-4)GlcNAc(b1-2)Man(a1-6)]Man(b1-4)GlcNAc(b1-4)GlcNAc
Outline: as §1

[25] = molecular target: Gal(a1-3)Gal(b1-4)GlcNAc(b1-3)GalNAc
Outline: as §1

[26] = molecular target: Gal(a1-3)Gal(b1-4)GlcNAc(b1-6)GalNAc
Outline: as §1

[27] = molecular target: Gal(a1-3)Gal(b1-4)[Fuc(a1-3)]GlcNAc
Outline: as §1

[28] = molecular target: Gal(a1-3)Gal(b1-4)[Fuc(a1-3)]GlcNAc(b1-2)Man(a1-3)[Gal(a1-3)Gal(b1-4)[Fuc(a1-3)]GlcNAc(b1-2)Man(a1-6)]Man(b1-4)GlcNAc(b1-4)GlcNAc
Outline: as §1

Gal(a1-3)GalNAc = molecular target: Gal(a1-3)GalNAc
Outline: as §1

[29] = molecular target: Gal(a1-3)[Gal(a1-4)]Gal(b1-4)GlcNAc
Outline: as §1

[30] = molecular target: Gal(a1-4)Gal(b1-3)GlcNAc(b1-2)Man(a1-3)[Gal(a1-4)Gal(b1-3)GlcNAc(b1-2)Man(a1-6)]Man(b1-4)GlcNAc(b1-4)GlcNAc
Outline: as §1

Gal(a1-4)Gal(b1-4)Glc = molecular target: Gal(a1-4)Gal(b1-4)Glc
Outline: as §1

Gal(a1-4)Gal(b1-4)GlcNAc = molecular target: Gal(a1-4)Gal(b1-4)GlcNAc
Outline: as §1

[31] = molecular target: Gal(a1-4)Gal(b1-4)GlcNAc(b1-2)Man(a1-3)[Gal(a1-4)Gal(b1-4)GlcNAc(b1-2)Man(a1-6)]Man(b1-4)GlcNAc(b1-4)GlcNAc
Outline: as §1

[32] = molecular target: Gal(a1-4)Gal(b1-4)GlcNAc(b1-3)Gal(b1-4)Glc
Outline: as §1

Gal(a1-4)GlcNAc = molecular target: Gal(a1-4)GlcNAc
Outline: as §1

Gal(a1-6)Glc = molecular target: Gal(a1-6)Glc
Outline: as §1

B1: EULS2 M2 (Oryza sativa) (protein)
chain: MVYCRANPNYAMTARNGAVVLAPANPKDEYQHWIKDMRWSTSIKDEEGYPAFALVNKATGQAIKHSLGQSHPVRLVPYNPEVMDESVLWTESRDVGNGFRCIRMVNNIYLNFDAFHGDKYHGGVRDGTDIVLWKLCEGDSQRWKIQPYYILEQKLISEEDLNSAVDHHHHHH
glycan array binding signal (z-score) (Fuc(a1-3)GlcNAc): -0.469 | glycan array binding signal (z-score) [1]: 0.658 | glycan array binding signal (z-score) [2]: -0.403 | glycan array binding signal (z-score) [3]: -0.319 | glycan array binding signal (z-score) [4]: 0.029 | glycan array binding signal (z-score) [5]: -0.168 | glycan array binding signal (z-score) [6]: 0.378 | glycan array binding signal (z-score) [7]: 0.057 | glycan array binding signal (z-score) [8]: -0.784 | glycan array binding signal (z-score) [9]: -0.239 | glycan array binding signal (z-score) [10]: -0.155 | glycan array binding signal (z-score) [11]: -0.214 | glycan array binding signal (z-score) [12]: -0.32 | glycan array binding signal (z-score) [13]: 0.041 | glycan array binding signal (z-score) [14]: -0.355 | glycan array binding signal (z-score) [15]: 0.046 | glycan array binding signal (z-score) [16]: -0.453 | glycan array binding signal (z-score) [17]: -0.107 | glycan array binding signal (z-score) (Fuc(a1-4)GlcNAc): -0.415 | glycan array binding signal (z-score) (Fuc(b1-3)GlcNAc): 0.166 | glycan array binding signal (z-score) (Gal(a1-2)Gal): -0.374 | glycan array binding signal (z-score) (Gal(a1-3)Gal): 0.006 | glycan array binding signal (z-score) (Gal(a1-3)Gal(b1-3)GlcNAc): 6.13 | glycan array binding signal (z-score) [18]: -0.595 | glycan array binding signal (z-score) [19]: -0.109 | glycan array binding signal (z-score) [20]: -0.646 | glycan array binding signal (z-score) [21]: -0.204 | glycan array binding signal (z-score) [22]: 0.228 | glycan array binding signal (z-score) (Gal(a1-3)Gal(b1-4)Glc): 0.101 | glycan array binding signal (z-score) (Gal(a1-3)Gal(b1-4)GlcNAc): -0.456 | glycan array binding signal (z-score) [23]: -0.469 | glycan array binding signal (z-score) [24]: 0.58 | glycan array binding signal (z-score) [25]: -0.627 | glycan array binding signal (z-score) [26]: -0.571 | glycan array binding signal (z-score) [27]: -0.444 | glycan array binding signal (z-score) [28]: -0.327 | glycan array binding signal (z-score) (Gal(a1-3)GalNAc): -0.346 | glycan array binding signal (z-score) [29]: -0.638 | glycan array binding signal (z-score) [30]: -0.056 | glycan array binding signal (z-score) (Gal(a1-4)Gal(b1-4)Glc): -0.552 | glycan array binding signal (z-score) (Gal(a1-4)Gal(b1-4)GlcNAc): -0.566 | glycan array binding signal (z-score) [31]: 0.344 | glycan array binding signal (z-score) [32]: 0.128 | glycan array binding signal (z-score) (Gal(a1-4)GlcNAc): -0.332 | glycan array binding signal (z-score) (Gal(a1-6)Glc): 0.292
